The chains are these.
B1: LINE1-mini (parent)
chain: GGCAGAGCUCAACACAGCGUGGCAAAGUGGCUGUGGCUAGACUGCC

The source gives no read counts; variants with many changes may rest on few reads.

The series covers variants of B1. As to the kind of experiment: self-cleavage, relative activity (ratio to wild type); higher = more cleavage; in vitro, sequencing; the parent is a self-cleaving ribozyme.
With GGAACUGCUCAACACAGCGUGGCAAAGUGGCUGUGGCUAGACUGCA, the self-cleavage was 0.18.
The same measure for GGAAGAGCUCAACACAGGGUGGCAAAGUAGCUUUGGCUAGACUGCC: 0.09.
Regarding GGAAGACCUCAACACAUCGUGGCCAAGUGGCUGCGGCUAGUCUGCC, the self-cleavage came out at 0.06.
With GGAAGAGCUCAACACAGUGUGGCAAAGUGGGUGUGGCUAGACUGCC, the self-cleavage turned out to be 0.1.
The result for GGAAAAGCUCAACCCUGCAUGGCAAAGUGGCUGUGGCUAGACGGCC reads 0.1; that for GGAAGAGCUCAACACAGAGUGGCAAAGGGGCUGUGGCUAGACUGCC, 0.02; that for GGAAGAGCUCAACACAGAGUGGCAAAGCGGCUGUGGCUAGACUGCC, 0.19.
The same measure for GGAAGAUCUCAACUCACCCUGGCAAAGUGGCUGUGGCUAGACUGCC: 0.1; for GGAAUAGCUCAACACAGCUUGGCAAAGUGGCUGUGGCUAGAUUGCC: 0.16.
The result for GGAAGAGCUCAACACAGCAUGGCACAGGGGCUGUGGCUAGACUGCC reads 0.05; that for GGAAGAGCUCAACAUAGAGUCGCAAUUUGGUUGUGGCUAGACUGCC, 0.02.
GGAAGAGCUCAAUACAGCGUGGCAAAGUGGCUGUUGCUAGACUGCC: the self-cleavage came to 1.68.
The result for GGAAGACCUCAACACAGCGUGCCAUAGUUGCUGUGGCUCGACUGCC reads 0.03; that for GGAAGAGCUCAACACAACGUGGCAUAGUGGCUGUGGCUAGACUGCC, 0.21.
As for GGAAGAGCUCAACACACCGUGCCAAAGUGGAUGUGGCUAGAAUGCC, the self-cleavage amounted to 0.08.
As to GGAAGAGCUCAACAAAGCGUGGCCACGUGGCUGCGGCUAGUCUGCC, the self-cleavage was 0.15.
For GGAAAAGCACAACAAAGCGUGGCAGAGUGGCUCUGGCUAGAGUGCC, the self-cleavage was 0.52.
Take GGAAGAGCUCAAUACAGCGUGGCAAAGUGGCCGUGGCUAGACUGCC: the self-cleavage was found to be 0.17.
The same measure for GGAAGAGCUCAACACAGUAUGGCUAAGGGGCUGUGGCUAGACUGCC: 0.31; for GGAAGAGCUCAACAUAGCGUGGCAACGUGGCUGUGGCUAUACUGCC: 0.21.
As to GGAAGAGCUCAACACACCGUGACAAAGUGGCUGUGGCUAGACUGCA, the self-cleavage came to 0.52.
With GGAAUAGCUCAACACUGAGUGGCAGAGUGGCUGUGCCUAGACUGCG, the self-cleavage was 0.12.
The same measure for GGAAGAGCUCAACACAGCGUGGCAAAGUGGUUGUGGGUAUACUGCC: 0.09; for GGAAGAACUCAACACAGCGUGGCAAAGUGGCUGUGGCUAGAUUGCC: 0.28.
The result for GGAAGAGCUCAAAACAGCGUGGCAAAGGGGAUGUGUCUAGACUGCC reads 0.17; that for GGAAGAGCUUAACACAGCGUGGCAAAGAGCCUGCGGCUAGACUUCC, 0.08.
The same measure for GGAAGAGCUCAACAGAGCGUGCCAAAGUGGCUGUGGCUAGAUCGCC: 0.03.
For GGAAGAGCUCAACACAGCGUCGCAAAGAGUCUGUGGCUAGACUGGC, the self-cleavage was 0.02.
The same measure for GGAAGAGCUCAACACAGAGUGGCAAAGUGCCUGUUGCUAGCCUGCC: 0.08; for GGAAGAACUCAACACAGCGUGGGAAAGUGGUUGUGGCUAGACUGCC: 0.72.
With GGAAGAGCUCAACACAGCAUGGCUACGUGCCUGUGGCUAGACUGCC, the self-cleavage came to 0.4.
For GGAAGAGCUUAACACAGCGUGGCAAAGUGGCUGUUGCUAGACUGCC, the self-cleavage worked out at 0.13.
GGAAGAGCUCAAAACGGCGUGGCAAAGUAGCUGUGGCUAGACUGCC: the self-cleavage stood at 0.08.
The same measure for GGAAGAGCUCAAAACAGCGUGGCAAAGUGGCUGUGGCCACACUGCC: 0.06; for GGAAAAGCUCAACACAGCGUGCCAAUGUGGCUGUGGCUAGACUGCC: 0.22; for GGAAGAGCUCAACACAUCGUGGCAAAGUGGCUGUGGCAAGAAUGCU: 0.08.
Regarding GGAAUAGCUGAACGCAGCGUGGCAAAGUGGCUGUGGCUAGACUGCC, the self-cleavage came to 0.02.
The result for GGAAGAGCUCAAUACAGCGUGGCAAAGUGGCUGUGGCUAGACUCCC reads 0.13.
Turning to GGAAGAUCUCAACACAGCGUGGCAAAGUGGCUCUGGCUAGACUGCC, the self-cleavage amounted to 0.04.
The result for GGAACAGAUCAACACAGCGUGGCAAAUUCGCUGUGGCUAGAAUGCC reads 0.45.
As for GGAAGAGCUCAACAUAGCGUGGCAAAGUGGCUGUUGCUAGACUGCC, the self-cleavage is 0.23.
GGAAGAGCUCAACACAGCCUGUCAAAGUGGCUGUGGCUAGACUGCC: the self-cleavage is 0.21.
The same measure for GGAACAGCUCAAUACAGCGUUGCAAAGUGGCUGUGGCUAGACUGCC: 0.16; for GGAACAGCUCAACACAGCGUGGCACACUGGCUGUGGCUACACUGCC: 0.06; for GGAAGAACUCAGCACAGCGUGGCAAAGUGGCUGUGGCUAGACUGGC: 0.26.
The same measure for GGAAAAGCUCAACACAGCGUGGCAAAGUGGCGGUGGCUAGACUGCC: 0.28.
The result for GGAACAGCUCAACAUAGCCUGGCAAAGUGGCUGUGGCUAGACUGCC reads 0.05; that for GGAAGAGCUCAACACAGGGUGGCAAAGUGCCUGUGGCUAGAGUGCC, 0.04; that for GGAAGAGCUCAACACAGUCUGGCAAAGUGGCUGGGGCUAGACUGCC, 0.03.
Turning to GGAAGAGCUCAACACAGCGUGGCAAAGUGGAUGUGGCUUGACUGCC, the self-cleavage amounted to 0.13.
The result for GGAAAAGCGCAACACAGCAUGGCAAAGUGGCUGUGGCUAGACUGCC reads 0.98.
The same measure for GGAAGAGCUCAACACAUCGAGGAAAUGUUGCUGUGGCUAGACUGCC: 0.06; for GGAAUAGCUUAACACAGCGUGGCAAAGUCGCUGUGGCUAGACUGCC: 0.01.
The result for GGAAGAGCUCAACACAUCGUGGCAAGGUGUCUGUGGCUAGACUGCC reads 0.1; that for GGAAGACCUCAACACAGCGUGGCAAAGUGGCUGUGGCUAGUCUGCC, 0.11.
With GGAAGAGCUCAAUAAAGCGUGGCAAAGUGGCUGUGGCUAGACUGCC, the self-cleavage turned out to be 0.31.
The same measure for GGAAGAGCUCAACACAGCGUAGCAAAGUUGCUGUGGCUAGACUGCC: 1.71; for GGAAGAGCUCAAUUAAGCGUCGCAAAGUGGCUGUGGCUAGACUGGC: 0.13.
The same measure for GGAAGAUCUCAACACAGCGUGGCAAAGUGACUGUGGCUAGACUGCC: 0.25.
With GGAAGAGCUCAACACAGCGUGUAAAAAUGGCUGUGGCUAGACUGCC, the self-cleavage was 0.26.
The result for GGAAGAGCUCAACACAGCGUCACAAAGUGGCUUUGGCUAGACUCCC reads 0.16; that for GGAAGAGCUCAACACAGCGUCGCAAUGCGGCUGUGGCUAGACUGCC, 0.1.
The same measure for GGAAGAGCUCAACAUAGCGUGGCAAAGUGGCUGUGGCUGGACUGCC: 0.04; for GGAAGAGCUCAACACAGCGUGACAAAGUGGCUGUGGCUAUACUGCC: 0.12.
Take GGAAGAGCUCAACACAGCUUGGGAAAGUGGCUGUGGCUAGACUGCC: the self-cleavage was found to be 0.29.
In the case of GGAACAGCUCAACACAGCGUGACAAAGUUGCUGUGGCUAGACUGCC, the self-cleavage was 0.15.
As to GGAAGAGCUCAACACAGCGUGACAAAGGGGCUGUGGCUAGACUGCC, the self-cleavage stood at 0.34.
The same measure for GGAAGAGCUCAACAGAGCGUGGCAAAGUGGCUUUGGCUAGACUGAC: 0.04; for GGAAGAGCUCAACAAAGCGUGGCGAAGUGGCUGUGGCGAGACUGCA: 0.2; for GGAAAAGCUCAACAGCGCGUGGCAAAGUGGCUGUGGCUAGACUGCC: 0.41.
The result for GGAAGAUCUCAAGACAGCGUGGCAAAGUGGCUGUGGCUAGACUGCC reads 0.63; that for GGAAGAGCUCAACACAGCGUAGCAAAGUGGCUGUGGCUAGACUGUC, 1.79; that for GGAAGAACUCAACACAGCGUGGUAAAGUGGCUGUGGCUAGACUGCC, 0.3.
The same measure for GGAAGACUUCAACACAGCGUGGCAAGGUGGCUUUGGAUAGACAGCC: 0.46; for GGAAGAGCUCAACAAAGCGUGGCAAAGUGUCUGUGGCUAGAUAACC: 0.08.
Take GGAAGAGCUCAAUACAGCGAGGCAAAGUGGCUGUGGCUAGACUGCC: the self-cleavage is 0.4.
On to GGAAAAUCUCAACAUAGCGAGGCAAAGUGGCUGUGGCUAGACUGCC, for which the self-cleavage was 0.86.
The result for GGAAGAGCUCAACAUAGUGUGGCAAAGUGGCUGUGGCUAGACUGCC reads 0.06.
The result for GGAAUAGCUCAACACAGCGUGGCAAAGUGGCUGUGACUAGACUGCC reads 0.18; that for GGAAGAGCUCAACACAGAGUGGCAAAGUGGCGGUGGCUAGACUGCC, 0.
The same measure for GGAAGAGCUCAAUACAGCGUGGCAAAGUAGCUGUGGCUAGACUGCC: 0.13; for GGAACAGCUCAACACAGGGUGUCAGAGUGGCUGUGGCUAGACUGCC: 0.18; for GGAAGAGCUCAACACAUCGUGGCAAACUGGCGGUGGCUAGACUGCC: 0.07.
Turning to GGAAGAACUCAACACAUCGAGGCAAAGUGGCUGUGGCUACCCUGCC, the self-cleavage was found to be 0.11.
The same measure for GGAAGAGCUCAACACAGCGUGUCAAUGUGGCUCUGGCUAGACUGGC: 0.03; for GGAAGAGCUCAACAAAGCGUGACAAAGUGGCUGUGGCUAGACUGCC: 0.08.
The same measure for GGAAGAGCUCAACAUAGCGUAGCAAAGUGGCAGUGGCUAGACUGCC: 0.03; for GGAAGAGCUCAACACAGCUUGGCAAAAUUGCUGUGGCUAGACUGCC: 0.32.
The result for GGAAGAGCUCAACACAGCCUGGCAAAGUGGCUUUGGCUAGAUUGCC reads 0.03; that for GGAAGAGCUCAACACAGAGUGGCAACGUGGUUGUGGCUAGAAUGCC, 0.03.
In the case of GGAAGAGCUCAACACAGCGUGGCAAAGUGGUUGUAGCUAGACUGCC, the self-cleavage is 0.08.
The same measure for GGAAGAGCUCAAUAAAGCGUGGCAAAGUUGCUGUGGCUAUACUGCC: 0.08; for GGAAGAGCUCAACACAGAGUGGCACAGUGGCUGAGGCUAGACUGCC: 0.07; for GGAAUCGCACAACACAGCGUGGCAAAGUGGCUGUGGCUAGACUGCC: 1.73.
The result for GGAAGAGCUCAACAAAGCGUGGCAAAGUGGCUGUGCCUAGGCUGAC reads 0.1.
Consider GGAAGAGCUCAACACAGCGUCGCAAAGUGGCUGUGCCUAGACUGCA, for which the self-cleavage came out at 0.65.
The result for GGAAGAGCUCAACACAGCGUGGCAAAGUGGCUGUGGCUAGAGAGCC reads 0.01; that for GGAAGACCUCAACACAGCGUGACAAAGUGGCUGUGGCUCGACUGCC, 0.05; that for GGAAGAGCUCAACACAGCGUUGCAAAGUGGCUGUGUAUAGACUGCC, 0.28.
The same measure for GGAAGAGCUCAACACAGCGUGGAAAAGUGGCUGUGUCUAGACUGCC: 0.04; for GGAAGAGCUCAACACAGAGUGGCAAAGUAGCUGAGGUGAGACUGCC: 0.08.
Consider GGAAGAGCUCAACACACCGUGGCAAAGUGGCUGUGGCUAGACUCCC, for which the self-cleavage was 0.25.
Take GGAAGAGCUCAACACACCGUGGCAAAGUGGCUGUGGCUAGACUACC: the self-cleavage is 0.11.
The result for GGAAGAGCUCAACAGAGCGUGGCUAAGUGGCUGUGCCUAGGCUGCC reads 0.09.
The same measure for GGAAGAGCUCAACAAAGGGUGUCAAAGUUGCUGUGGCUAGACUGCC: 0.21; for GGAAGAGCUCAACACAGCGUUGCAAAGUGGUUGUGGCUAUACUGCC: 0.12.
The result for GGAAGAGCUCAACACAGCGUGACUAAGUGGCUGUGGAUCGACUGCC reads 0.27.
For GGAAAAGCUCAACACAGCGUGGCAACGUUGCUGUGGCUAAACUGCC, the self-cleavage stood at 0.35.
The same measure for GGAAGAGCUCAACAUAACGUGGCAAAGUGACUGUGGCUAGACUGAC: 0.03; for GGAAUAGCUCAACACAGCGUGGCAAAGUGUCUAUGGCUAGAACGCC: 0.1; for GGAAGAGCUCAACAUAGCGUGGCAAAGUGGCUGUGGCUAGAUUGCC: 0.43.
Regarding GGAAUAGCUCAACAGAGCGUGGCAAAGUGGCUGUGGCUAGACUGGC, the self-cleavage stood at 0.01.

For the origin of these results see the RNAGym collection of RNA variant scans (doi:10.7554/elife.90254).
